Laboratory results published in paper PMC4336329 (PLoS ONE, 2015).
About 14,000 (4.5%) of roughly 310,000 compounds showed an effect of 50% or more. The effect is printed as a negative number. The list shows a part of the results.

What follows are molecules tested against human ether-à-go-go-related gene (hERG) potassium channel (human, UniProt Q12809) (assay: primary screen, population patch clamp on CHO cells stably expressing hERG).
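Note: peak tail current of the secondary pulse compared with the same well before compound.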

Sequence of human ether-à-go-go-related gene (hERG) potassium channel (Q12809 whole entry, looked up): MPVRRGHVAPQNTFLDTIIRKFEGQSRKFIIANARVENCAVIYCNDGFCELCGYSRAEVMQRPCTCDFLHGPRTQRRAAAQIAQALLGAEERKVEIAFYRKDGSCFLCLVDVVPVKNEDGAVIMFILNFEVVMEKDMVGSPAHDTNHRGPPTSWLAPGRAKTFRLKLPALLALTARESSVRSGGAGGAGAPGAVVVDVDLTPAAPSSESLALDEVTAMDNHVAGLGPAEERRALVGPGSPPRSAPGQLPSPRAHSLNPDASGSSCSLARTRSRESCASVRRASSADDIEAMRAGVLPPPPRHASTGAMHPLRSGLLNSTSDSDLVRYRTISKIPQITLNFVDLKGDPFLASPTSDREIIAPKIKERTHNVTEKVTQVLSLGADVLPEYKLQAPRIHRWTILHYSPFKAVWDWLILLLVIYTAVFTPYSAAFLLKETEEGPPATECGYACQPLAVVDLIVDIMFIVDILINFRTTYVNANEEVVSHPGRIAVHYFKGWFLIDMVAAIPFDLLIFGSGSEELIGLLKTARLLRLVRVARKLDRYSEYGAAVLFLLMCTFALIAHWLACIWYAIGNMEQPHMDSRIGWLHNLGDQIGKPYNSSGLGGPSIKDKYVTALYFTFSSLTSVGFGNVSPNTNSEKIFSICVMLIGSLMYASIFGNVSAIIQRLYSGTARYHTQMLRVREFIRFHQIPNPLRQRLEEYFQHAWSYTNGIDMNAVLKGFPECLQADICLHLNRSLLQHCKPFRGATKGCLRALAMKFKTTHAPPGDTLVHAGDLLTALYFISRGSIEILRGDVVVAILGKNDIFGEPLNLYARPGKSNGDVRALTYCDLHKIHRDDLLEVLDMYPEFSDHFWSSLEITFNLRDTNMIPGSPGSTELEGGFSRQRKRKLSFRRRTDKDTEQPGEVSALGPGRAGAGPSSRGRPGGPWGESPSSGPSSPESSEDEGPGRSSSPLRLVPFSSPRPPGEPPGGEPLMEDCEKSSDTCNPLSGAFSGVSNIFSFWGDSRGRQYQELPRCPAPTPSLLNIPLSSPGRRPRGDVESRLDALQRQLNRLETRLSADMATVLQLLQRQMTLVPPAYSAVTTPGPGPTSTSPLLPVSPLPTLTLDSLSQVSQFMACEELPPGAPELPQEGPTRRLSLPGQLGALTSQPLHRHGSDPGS

Row | Structure (SMILES) | hERG current change (%, negative = inhibition) at 10uM
1 | N=C1C(c2nc3ccccc3s2)=C(O)CN1c1ccccc1 | 0.995%
2 | O=C(Nc1ccc(F)cc1F)Nc1ccc(F)cc1F | 11.2%
3 | O=C(NP(=O)(N1CCCC1)N1CCCC1)C1=C(N2CCOCC2)/C(=C/c2cccc([N+](=O)[O-])c2)CC1 | -26.1%
4 | COc1cccc(-c2cc(=O)c3cc(NC(C)=O)ccc3[nH]2)c1 | 1.04%
5 | COCCNc1nc(-c2cc(-c3ccccc3)on2)cc(C(C)C)n1 | -8.35%
6 | Cc1ccc(S(=O)(=O)N/N=C/c2ccc(C(=O)O)cc2)cc1 | 15.2%
7 | COc1ccc(C(=O)Nc2c(N)nc(SCC(=O)Nc3ccc(NC(C)=O)cc3)[nH]c2=O)cc1OC | 29.2%
8 | Oc1ccccc1C1=NCCNC(C(F)(F)C(F)F)=C1 | -36.1%
9 | O=C(c1cncc(Br)c1)N1CCN(S(=O)(=O)c2ccccc2C(F)(F)F)CC1 | -17.6%
10 | CCOC(=O)N1CCN(C(=O)c2ccc3c(c2)NC(=O)C(N2CCOCC2)S3)CC1 (stereo not shown) | -4.6%
11 | COC(=O)c1ccc(Nc2nc(C)cc(C)n2)cc1 | 10.9%
12 | COc1ccc(-c2oc(=O)c3cc(OC)c(OC)cc3c2/C=C/c2cccc([N+](=O)[O-])c2)cc1 | 2.12%
13 | CC(=O)Nc1c(O)nc(SCC(=O)Nc2ccc(C(C)=O)cc2)[nH]c1=O | 6.27%
14 | CC1CCCCC1NC(=O)c1cc2c(s1)CS(=O)(=O)C2 (stereo not shown) | -6.74%
15 | CCCc1noc(-c2cccc([N+](=O)[O-])c2)n1 | 11.5%
16 | Cl.N=c1n(CCN2CCCCC2)c2ccccc2n1CC(O)COc1ccccc1 (stereo not shown) | -68.2%
17 | CCCN(C(=O)C1=COCCO1)c1c(N)n(Cc2ccccc2)c(=O)[nH]c1=O | 16.2%
18 | CCOC(=O)C1CCN(C(=O)c2ccccc2CCc2ccccc2)CC1 | -8.95%
19 | CCn1cc(C(=O)NCC(OC)OC)c(=O)c2cc(S(=O)(=O)N3CCCC3)ccc21 | 10.3%
20 | COCCNC(=O)Cn1cnc2ccc(S(=O)(=O)N3CCC(C)CC3)cc2c1=O | -15.1%
21 | CNC(=S)NNC(=O)c1cccn(Cc2ccccc2)c1=O | 19%
22 | O=C(CNC(=O)C(c1ccccc1)c1ccccc1)OCc1ccccc1 | 18.1%

Row | Structure (SMILES) | hERG current change (%, negative = inhibition) at 10uM
23 | COc1cc(/C=C2\C(=O)ON=C2c2ccccc2)cc(Br)c1O | -3.19%
24 | C#CCNC(=O)C1=C[C@H](c2coc3ccccc3c2=O)C[C@H](OCCCCO)O1 | -45%
25 | CC(CNC(=O)CCc1nnc(CCC2CCCCC2)o1)c1ccccc1 (stereo not shown) | -10.3%
26 | CC(C)C(=O)Nc1ccc(NC(=O)c2ccccn2)cn1 | 7.61%
27 | O=c1c2ccccc2cnn1Cc1cccc(Br)c1 | 3.05%
28 | Cn1c(-c2ccccc2)cnc1SCC(=O)NCc1ccco1 | 0.977%
29 | CC1CCC(NC(=O)C2CCN(C(=O)Nc3ccccc3)CC2)CC1 (stereo not shown) | 11.9%
30 | COc1ccc2c(c1OC)C(=O)OC2c1c(O)nc(SC)n(-c2ccccc2)c1=O (stereo not shown) | -2.74%
31 | CCOC(=O)C1CCN(/C=C2/C(=O)NC(=S)N(c3cccc(OC)c3)C2=O)CC1 | 19.4%
32 | CC(O)Cc1cn([C@@H](CCCCNC(=O)OC(C)(C)C)C(=O)N2CCN(C(=O)OC(C)(C)C)CC2)nn1 (stereo partly shown) | 8.15%
33 | O=S(=O)(c1cccc(S(=O)(=O)N2CCOCC2)c1)N1CCCCCC1 | 1.86%
34 | Cc1ccc(C)n1-c1cc(S(=O)(=O)N2CCOCC2)ccc1N1CCCC1 | 12.9%
35 | Nc1c(C(=O)N/N=C/c2ccc(Cl)cc2)cnn1-c1ccccc1 | 12.9%
36 | COCC(C)NS(=O)(=O)c1ccc(C(=O)NC(Cc2ccccc2)c2ccccc2)cc1 (stereo not shown) | -30.6%
37 | Nc1[nH]c(N=NC(=O)c2ccc(F)cc2)c2ccccc12 | 3.71%
38 | O=C(O)CC1c2ccccc2CCN1S(=O)(=O)c1cccs1 (stereo not shown) | 14%
39 | COc1ccc(N(CC(=O)NCCSCc2ccco2)S(=O)(=O)c2ccccc2)cc1OC | -24.1%
40 | CC(C)Oc1ccc(S(=O)(=O)N2CCOCC2)cc1NC(=O)C1CCCC1 | -2.42%
41 | CC1Cc2cc(S(=O)(=O)N3CCN(c4ccccc4F)CC3)ccc2N1C(=O)C1CC1 (stereo not shown) | 16.9%
42 | O=C(CSc1nnc(NC2CCCCC2)s1)NN1C(=O)NC2(CCCCC2)C1=O | 8.23%
43 | CCOc1ccc(CCNC(=O)CCn2ccc3cc(S(=O)(=O)N4CCCC4)ccc32)cc1 | -25.4%
44 | Cc1cc([N+](=O)[O-])nn1CCCC(=O)Nc1sc2c(c1C(N)=O)CCCC2 | -6.34%

Row | Structure (SMILES) | hERG current change (%, negative = inhibition) at 10uM
45 | CCC(CC)C(=O)N1CC(=O)Nc2ccc(Br)cc2C1c1ccccc1 (stereo not shown) | -73.5%
46 | CCCOC(=S)Nc1ccccc1 | 6.18%
47 | O=C(Nc1cccnc1)OC1CCCC1 | 34.1%
48 | COc1ccc2[nH]c(=O)c(CN(C(=O)c3cccnc3)c3ccccc3C)cc2c1 | 3.25%
49 | COc1ccc(C(=O)Nc2ccc(Cc3ccncc3)cc2)cc1Br | -3.93%
50 | CCOc1ccc(N=C2NC(=O)C(CC(=O)Nc3ccc(OC)cc3)S2)cc1 (stereo not shown) | 16.8%
51 | O=C(/C=C/c1ccc(Cl)cc1Cl)NCCSc1ccccc1 | 1.36%
52 | Cc1ccc2cc(CCNC(=O)c3ccc(S(=O)(=O)N4CCOCC4)cc3)c(=O)[nH]c2c1C | 16%
53 | COc1ccc(C(=O)/C=C/Nc2cc(C)on2)cc1 | 3.9%
54 | CC(C)/C=C(/C(=O)c1ccc(Cl)cc1Cl)n1cncn1 | 20.6%
55 | O=C(Nc1ccccc1Cl)c1ccc2nsnc2c1 | 5.5%
56 | Cc1cc(-c2ccccc2)n2ncc(C#N)c2n1 | -13.5%
57 | COc1ccc(CCNC(=O)CCCc2ccccc2)cc1OC | 8.91%
58 | Fc1ccc(NC(=S)NC2CCCCC2)c(F)c1F | 8.12%
59 | Cc1cccc(C)c1NC(=S)NCc1ccncc1 | 15.1%
60 | Cc1ccc(N(Cc2ccccc2)C(=O)c2cccc(S(=O)(=O)N3CC(C)OC(C)C3)c2)cc1 (stereo not shown) | -7.01%
61 | COCCNC(=O)C(=O)N/N=C(\C)CC(=O)Nc1cccc(C(F)(F)F)c1 | 8.17%
62 | Cn1cc(CN2CCC(C(O)CCc3ccccc3)CC2)c(-c2ccccc2F)n1 (stereo not shown) | -71.3%
63 | O=C(c1ccccc1Cc1ccccc1)N1CCN(S(=O)(=O)c2ccccc2F)CC1 | -20.3%
64 | CN(Cc1ccccc1)c1nc2c(c(=O)[nH]c(=O)n2C)n1CCCc1ccccc1 | -51.8%
65 | CCOC(=O)c1c(NC(=O)CN2CCC(C)CC2)sc(C)c1C | -0.64%
66 | Cc1sc2nc(COC(=O)c3ccc(N4CCCC(C)C4)c([N+](=O)[O-])c3)[nH]c(=O)c2c1C (stereo not shown) | 26.9%

Row | Structure (SMILES) | hERG current change (%, negative = inhibition) at 10uM
67 | CCCCC(=O)NC(NC(=S)N1CCOCC1)C(Cl)(Cl)Cl (stereo not shown) | -26.7%
68 | COc1ccccc1NS(=O)(=O)c1cc(NC(=O)c2cnccn2)ccc1N1CCOCC1 | -18.9%
69 | CCN1CCc2c(sc(N)c2C#N)C1 | 5.55%
70 | O=C(NCCCn1ccnc1)c1ccc(Cl)cc1 | -2.72%
71 | COc1cc(C(O)P(=O)(OCCC(C)C)c2ccc(N(C)C)cc2)cc(OC)c1OC (stereo not shown) | 10.9%
72 | Cc1ccc(S(=O)(=O)N2CCCCC2C(=O)O)cc1 (stereo not shown) | 6.47%
73 | COc1ccc(C(=O)Nn2c(SCC(=O)N3CCC(C)CC3)nc3ccccc3c2=O)cc1 | -20.8%
74 | COc1ccc(N2CCN(c3oc(COc4ccccc4Cl)nc3C#N)CC2)cc1 | 0.959%
75 | Cc1ccc(C(C)C)c(OCCNS(C)(=O)=O)c1 | 5.94%
76 | CC1(C)Cc2c(sc3ncn4c(=S)[nH]nc4c23)CO1 | 29.7%
77 | O=C(c1c(O)c2ccccc2oc1=O)C1CCC1 | 7.19%
78 | CCOc1ccc(NC(=O)CCC(=O)OC)cc1 | -1.95%
79 | CCCn1c(=N)n(CCOc2ccc(OC)cc2)c2ccccc21 | -59.5%
80 | Cc1csc(SCC(=O)Nc2nc(-c3ccccc3)cs2)n1 | -8.35%
81 | CC(C)c1ccc(N(C(=O)c2csnn2)C(C(=O)NC(C)(C)C)c2ccncc2)cc1 (stereo not shown) | -42.8%
82 | CC1=C(C#N)C(NC(=O)C2CC2)(C(F)(F)F)C(=O)N1 (stereo not shown) | -2.06%
83 | COc1ccc(C(=O)Nc2cnc(NC(=O)c3cccs3)cc2C)cc1 | 2.82%
84 | O=C(O)c1cccc2sc3cc(Cl)ccc3c(=O)c12 | 3.22%
85 | O=S(=O)(Nc1ccc(Cc2ccncc2)cc1)c1ccc(Cl)cc1 | 12.4%
86 | COc1ccc(NC(=O)COC(=O)CNC(=O)C2CCCCC2)cc1 | 6.53%
87 | OCCN(CCO)c1ncnc2c1oc1ccc(Br)cc12 | -29.7%
88 | O=C1/C(=C\c2cccnc2)SC(=S)N1c1ccc(F)cc1 | 12.3%
